PubChem BioAssay (NCI)
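How tested: cells in 96-well plates exposed to compound for 48 hours at five concentrations. GI50 marks 50% less growth. Definition used: TGI = concentration required for complete inhibition of growth.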 Activity calls are given as the source filed them.

System: MDA-MB-468 breast
Test: growth of human tumour cells (NCI), 48 h

In the case of `O=C(CCCN1CCC2(CC1)C(=O)NCN2c1ccccc1)c1ccc(F)cc1`, the GI50 is reported as “inactive” and the TGI is reported as 72.3 µM.
